Results: US9452154B2, “Methods for treating HCV” (Gilead Sciences, Inc., priority 2010, dated 2016)

What was measured:
Assay type in all cases: cell-based
[1] = test system: HCV genotype 1b replicon cells (Huh-luc); experiment: Biological Example 5: antiviral activity assay in HCV Huh-luc replicon cells
Protocol: Compounds were serially diluted 1:2 in 100% DMSO. Serial dilutions were added to the cells at a 1:200 dilution to achieve a final concentration of 0.5% DMSO in a total volume of 200 μL.
EC50 values were calculated by nonlinear regression analysis of replicate data sets using XLfit 4 software (IDBS, Emeryville, Calif.).

[2] = test system: HCV genotype 1b replicon cells (Huh-luc); experiment: Biological Example 1: EC50 determination in Huh-luc replicon cells; details: Hepatitis C virus, 72 h, 3 days
Protocol: (§1) Compounds 1 and 2 were serially diluted 1:3 in 100% DMSO (Sigma). These serial dilutions were added to the cells at a 1:200 dilution to achieve a final concentration of 0.5% DMSO in a total volume of 200 μL. […] HCV replication levels in drug-treated samples were expressed as a percentage of those in untreated controls (defined as 100%), and data were fit to the logistic dose response equation y=a/(1+(x/b)c) using XLFit4 software (IDBS, Emeryville, Calif.). EC50 values were calculated from the resulting equations as described previously (Delaney, W. E., et al., Antimicrobial Agents Chemotherapy, 45(6):1705-1713 (2001)).

[3] = test system: HCV genotype 1b replicon cells (Huh-luc); experiment: Biological Example 2: EC50 determination in Huh-luc replicon cells
Protocol: as §1, with “Compounds” for “Compounds 1 and 2”, “previously.” for “previously (Delaney, W. E., et al., Antimicrobial Agents Chemotherapy, 45(6):1705-1713 (2001)).”

[4] = Hepatitis C virus, 72 h, 3 days, read-out: EC50

Compound: COC(=O)N[C@H](C(=O)N1CC2(CC2)C[C@H]1c1ncc(-c2ccc3c(c2)C(F)(F)c2cc(-c4ccc5nc([C@@H]6[C@H]7CC[C@H](C7)N6C(=O)[C@@H](NC(=O)OC)C(C)C)[nH]c5c4)ccc2-3)[nH]1)C(C)C [Compound 6, (1-{3-[6-(9,9-Difluoro-7-{2-[5-(2-methoxycarbonylamino-3-methyl-butyryl)-5-aza-spiro[2.4]hept-6-yl]-3H-imidazol-4-yl}-9H-fluoren-2-yl)-1H-benzoimidazol-2-yl]-2-aza-bicyclo[2.2.1]heptane-2-carbonyl}-2-methyl-propyl)-carbamic acid methyl ester]
- EC50 [1, 4]: 0.0018 ± 0.0007 nM

Compound: Fc1ccccc1-c1nc2ccn(Cc3ccc(-c4ccc(C(F)(F)F)cc4C(F)(F)F)nn3)cc-2n1 [Compound 1, 5-((6-(2,4-bis(trifluoromethyl)phenyl)pyridazin-3-yl)methyl)-2-(2-fluorophenyl)-5H-imidazo[4,5-c]pyridine]
- EC50 [2]: 3 ± 2 nM
- EC50 ([3]; Hepatitis C virus, 72 h, Huh-luc replicon cells, 3 days): 0.4 ± 0.14 nM
- EC50 [1, 4]: 0.96 ± 0.39 nM

Compound: COc1ccc2c(O[C@@H]3C[C@H]4C(=O)N[C@]5(P(=O)(O)Cc6c(F)cccc6F)C[C@H]5CCCCCCC[C@H](NC(=O)OC5CCCC5)C(=O)N4C3)cc(-c3csc(NC(C)C)n3)nc2c1Cl [Compound 2, (2R,6S,13aR,14aS,16aS)-2-(8-chloro-2-(2-(isopropylamino)thiazol-4-yl)-7-methoxyquinolin-4-yloxy)-6-(cyclopentyloxycarbonylamino)-5,16-dioxooctadecahydrocyclopropa[e]pyrrolo[1,2-a][1,4]diazacyclopentadecin-14a-yl(2,6-difluorobenzyl)phosphinic acid]
- EC50 [2]: 11 ± 3 nM
- EC50 [1, 4]: 5 nM

Compound: CC(C)C(=O)OCC1O[C@@H](n2ccc(N)nc2=O)[C@](C)(F)[C@@H]1OC(=O)C(C)C (stereo partly drawn) [Compound 7]
- EC50 [1, 4]: 1240 ± 341 nM

Compound: NC(=O)c1ncn([C@@H]2O[C@H](CO)[C@@H](O)[C@H]2O)n1 [Ribavirin, 1-β-D-ribofuranosyl-1H-1,2,4-Triazole-3-carboxamide, reference compound]
- antiviral activity ([3]; up to concentrations which were beginning to show cytotoxicity): no antiviral activity

Compound: IFN-α [reference compound]
- EC50 ([1]; IFN-α in Units per mL): 0.05 U/ml ± 0.04
